Molecules are shown by their SMILES. Whole data set: some 110,000 compounds, median “z-score” near -0.1, cut for the highest 2% near 2. Some of the results follow. The source made the active and inactive calls.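 How the source made its calls: active means z-score in the third read window above 3 or below -3; inactive means the rest.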

Results on 110 molecules are retold here after PubChem BioAssay AID488969 (Vanderbilt High Throughput Screening Facility, 2010).

The target in this test is Metabotropic glutamate receptor 8 (Rattus norvegicus) (UniProt P70579). Briefly: rat mGluR8 modulators via GIRK flux, primary screen, cell-based, thallium flux, HTS (AID 488969). The settings on record: HEK293 rat mGluR8, GIRK (G protein-gated inwardly rectifying potassium channel) thallium flux, FluoZin2; at 10 µM; stronger effect = higher value; submaximal glutamate (EC20) added with thallium.
UniProt P70579, sequence (P70579 whole entry, looked up): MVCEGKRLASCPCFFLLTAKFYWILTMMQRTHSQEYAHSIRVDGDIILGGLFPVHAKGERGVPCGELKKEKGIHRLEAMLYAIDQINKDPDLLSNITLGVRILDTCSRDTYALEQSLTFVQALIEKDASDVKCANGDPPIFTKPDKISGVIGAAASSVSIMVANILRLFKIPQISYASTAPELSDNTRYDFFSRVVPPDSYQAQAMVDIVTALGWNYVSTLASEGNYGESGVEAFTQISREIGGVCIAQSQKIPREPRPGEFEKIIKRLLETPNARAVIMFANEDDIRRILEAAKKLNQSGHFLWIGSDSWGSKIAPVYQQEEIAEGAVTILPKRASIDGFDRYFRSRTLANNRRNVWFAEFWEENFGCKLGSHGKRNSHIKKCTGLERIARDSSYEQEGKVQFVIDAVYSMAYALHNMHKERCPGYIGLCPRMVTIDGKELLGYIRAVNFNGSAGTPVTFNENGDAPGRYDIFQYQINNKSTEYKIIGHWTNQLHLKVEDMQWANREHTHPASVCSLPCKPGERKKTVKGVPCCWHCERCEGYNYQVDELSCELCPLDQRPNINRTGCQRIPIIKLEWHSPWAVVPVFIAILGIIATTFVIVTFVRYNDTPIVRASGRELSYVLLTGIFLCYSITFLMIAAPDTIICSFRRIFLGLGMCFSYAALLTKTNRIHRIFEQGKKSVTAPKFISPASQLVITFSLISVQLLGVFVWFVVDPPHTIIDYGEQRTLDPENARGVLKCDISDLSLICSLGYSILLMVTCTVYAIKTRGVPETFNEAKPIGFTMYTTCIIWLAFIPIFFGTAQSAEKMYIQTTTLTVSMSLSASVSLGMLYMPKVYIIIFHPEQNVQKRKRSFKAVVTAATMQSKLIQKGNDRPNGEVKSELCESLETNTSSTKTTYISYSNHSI
In turn, `Cc1nc2ccc(S(=O)(=O)NCC(=O)N3CCCCC3)cc2s1` registered a z-score of -0.09.

Take `CC1(C)C(c2ccccc2)=[N+]([O-])C2(CCCCC2=O)N1O` (stereo not given): the z-score is -0.0231.

Molecule `Cc1cccc2nc(CSc3ccccc3N)cn12` came in with a z-score of -0.0426.

Molecule `CC(=O)c1c(C(C)=O)c(C)n(-c2ccc(O)cc2)c1C` had a z-score of -0.481.

In turn, `Cc1cc(OC2CCCCC2)nc(-c2ccccc2O)n1` registered a z-score of 0.368.

In the case of `CSc1ccn(CCC(=O)O)c(=O)n1`, the z-score is -0.489.

Molecule `O=C(Cn1cnc2c(oc3ccccc32)c1=O)NCc1ccccc1` showed a z-score of -0.449.

In turn, `COc1cccc(CSc2nnc(CSc3nc4nc(C)cc(C)n4n3)s2)c1` displayed a z-score of -0.0954.

Consider `Cc1ccc(S(=O)(=O)N2CCN(Cc3nc4ccccc4n3C)CC2)cc1`, for which the z-score was -0.608.

`Cc1nnc(SCCn2c(N3CCN(C)CC3)nc3c2c(=O)n(C)c(=O)n3C)s1`: the z-score is -0.135.

For the molecule `COc1ccc(C2C(C(=O)Nc3cccc(C)n3)c3ccccc3C(=O)N2C)cc1OC` (stereo not given), the z-score was -0.119.

The molecule `COc1ccccc1-c1cn(S(=O)(=O)c2ccc(C)cc2)nc1N` registered a z-score of 0.0429.

`O=C(N/N=C/c1ccncc1)c1cc([N+](=O)[O-])cc([N+](=O)[O-])c1O`: the z-score is -0.0942.

As for `O=C(c1ccccn1)c1ncc(C(F)(F)F)cc1Cl`, the z-score is 0.011.

Consider `CCS(=O)(=O)N1CCCC(C(=O)NCc2cccnc2)C1` (stereo not given), for which the z-score turned out to be 0.215.

As to `Cc1cc(NC(=O)C2CC(c3ccc(F)cc3)=NO2)n(-c2ccccc2)n1` (stereo not given), the z-score amounted to 0.0546.

In turn, `COC(=O)c1ccc(CSc2nc3ccc(S(=O)(=O)N4CCOCC4)cc3[nH]2)cc1` had a z-score of -0.624.

`COc1ccc(C(CC(=O)Nc2ccc(F)cc2)c2ccccc2)cc1` (stereo not given) registered a z-score of 1.4.

In turn, `CN(C)c1ccc(S(=O)(=O)c2ccc(Cl)cc2)cc1` had a z-score of 0.192.

Turning to `CC1(C)OC(=O)C(=CNc2ccccc2)C(=O)O1`, the z-score is -0.381.

Molecule `COCCCN1C(=O)c2ccc(C(=O)NCc3ccco3)cc2C1=O` returned a z-score of -0.549.

On to `COc1cccc(C2Nc3cc(Cl)c(S(N)(=O)=O)cc3S(=O)(=O)N2)c1` (stereo not given), for which the z-score was found to be 0.231.

In the case of `CCCN1C2=NCCCN2c2ccccc21`, the z-score was 0.397.

Take `CS(=O)(=O)N(CC(=O)NC1CC1)c1cccc(F)c1`: the z-score stood at 0.469.

In the case of `N/C(=N\OC(=O)c1ccc(Cl)cc1)c1ccc(Cl)cc1`, the z-score was -0.177.

`CC(=O)c1cc(-c2ccccc2)n(CC(=O)N2CCC(N3CCCCC3)CC2)c1C` showed a z-score of -0.319.

Molecule `COc1ccc2c(c1)c(CC(=O)Nc1ccccc1OC)c(C)n2C(=O)c1ccc(Cl)cc1` gave a z-score of -0.262.

Molecule `COc1ccc(C(=O)C[n+]2cccc(C)c2)cc1` returned a z-score of -0.433.

In turn, `O=C(NCc1ccncc1)/C(=C\c1ccc(F)cc1)NC(=O)c1ccccc1` had a z-score of -0.756.

`c1ccc(-c2nc3ccccc3s2)nc1`: the z-score was -0.0256.

In turn, `COC(=O)COc1ccc(S(=O)(=O)NCc2cccnc2)cc1C` yielded a z-score of 0.343.

Consider `CC(C)(C)OC(=O)NCC(=O)Oc1cc2oc(=O)cc(-c3ccccc3)c2cc1Cl`, for which the z-score is 0.109.

`CC(=O)NCCC(=O)NCc1ccc(F)cc1` came in with a z-score of -0.138.

With `COc1cccc(S(=O)(=O)NCc2ccc(C(=O)Nc3cccc(Cl)c3)cc2)c1`, the z-score is -0.232.

`Cc1ccccc1N1C(N)=NC(N)=NC1(C)C` yielded a z-score of -0.257.

With `Cc1c([N+](=O)[O-])ccc(S(=O)(=O)N2CCC(C(N)=O)CC2)c1C`, the z-score is 0.0595.

Regarding `Nc1cc(OC(=O)c2cccs2)nn1S(=O)(=O)c1ccc(F)cc1`, the z-score is -1.06.

The molecule `COc1ccc(NC(=S)NCCc2ccccc2)c(OC)c1` returned a z-score of -0.465.

Turning to `Cc1ccc(NS(=O)(=O)c2ccc(NC(=O)c3cccs3)cc2)c(C)c1`, the z-score is -0.181.

Molecule `CSc1n[nH]c2nc3c(c(=O)n12)C1(CCCC1)Cc1ccccc1-3` yielded a z-score of -0.528.

`O=C(Nc1ccccc1-c1ccccc1)c1cc(C(F)(F)F)cc(C(F)(F)F)c1`: the z-score is -0.214.

Molecule `CCOC(=O)C1=C(Cc2ccc(Cl)cc2)C(=O)c2ccccc2C1=O` had a z-score of 0.281.

As to `O=C(Oc1ccc2ccccc2c1)c1ccccc1`, the z-score worked out at 1.11.

On to `O=S(=O)(c1cccc(NC(=S)N2CCN(c3ccccc3F)CC2)c1)C(F)F`, for which the z-score is -0.392.

Molecule `COc1ccc(C(=O)c2sc3nc(C)cc(-c4cccs4)c3c2N)cc1` yielded a z-score of -0.662.

With `Cc1cc(C)c(OCC(=O)Nc2cccc(O)c2)cc1C`, the z-score worked out at 0.575.

The molecule `CCN(CC)c1ccc(/C=N\NC(N)=O)cc1` had a z-score of -0.251.

Take `Cc1cccc(N2CCN(S(=O)(=O)c3c(C)[nH]c(=O)[nH]c3=O)CC2)c1C`: the z-score is -0.311.

Regarding `CCC(c1nnnn1CCOC)N(Cc1cc2c(C)cc(C)cc2[nH]c1=O)CC1CCCO1` (stereo not given), the z-score was -0.203.

Molecule `CC1=C(C(=O)Nc2ccc(Cl)cc2)C(c2ccncc2)C(C#N)=C(SCC(N)=O)N1` (stereo not given) showed a z-score of -0.161.

Molecule `COc1c(F)c(F)c(C(=O)Nc2ccccc2N2CCN(C(C)=O)CC2)c(F)c1F` gave a z-score of -0.155.

For `CCOC(=O)N1CCN(C(=O)CN(c2cc(Cl)ccc2OC)S(=O)(=O)c2ccccc2)CC1`, the z-score was -0.359.

`CCCCc1c(C)nn(-c2nnc3c4ccccc4n(C)c3n2)c1C` yielded a z-score of 0.143.

In turn, `CCCOc1ccc(/C=C/C(=O)Nc2ccc([N+](=O)[O-])cc2)cc1` showed a z-score of -0.106.

With `CN(C)CCNC(=O)C1CC(=O)N(c2ccc(F)c(Cl)c2)C1` (stereo not given), the z-score worked out at 0.215.

As to `N#CC1=C2SCN(Cc3ccco3)CN2C(=O)CC1c1c(F)cccc1Cl` (stereo not given), the z-score was -0.326.

Consider `CCOc1ccc(-c2nn[nH]n2)cc1OCC`, for which the z-score is -0.435.

`Cn1nc(CC(=O)Nc2cccc3ncccc23)c2ccccc2c1=O` registered a z-score of 2.01.

Turning to `O=C(C1CCCO1)N1CCN(C(=S)Nc2ccc(Cl)cc2)CC1` (stereo not given), the z-score stood at 0.538.

`CCOc1cccc(OCCn2cnc3ccccc3c2=O)c1` showed a z-score of -0.0247.

`CC(=O)Nc1ccc(S(=O)(=O)N(C)CC(=O)Nc2ccccc2N2CCOCC2)cc1` yielded a z-score of -0.0453.

For the molecule `Cc1cc(Cl)c(S(=O)(=O)N2CCCC2)cc1OCC(=O)NC1CCCCC1`, the z-score is -0.525.

`CCOC(=O)N1CCC(n2c(SCC(=O)c3ccccc3)nc3ccsc3c2=O)CC1` returned a z-score of 0.366.

The molecule `O=C(O)CCN=C1CCc2ccccc2N1` came in with a z-score of -0.0864.

The molecule `O=S(=O)(c1ccc(F)cc1)c1nc(-c2ccccc2F)oc1N1CCCCC1` yielded a z-score of -0.159.

Molecule `O=C(c1ccco1)N1CCN(C(=O)c2cc3c(=O)oc4ccccc4c3s2)CC1` returned a z-score of -1.26.

In the case of `CCCCOc1cccc(NC(=O)CSc2nncn2C)c1`, the z-score is 0.36.

With `COC(=O)c1ccccc1NC(=O)CSc1nnc(-c2cccnc2)n1C`, the z-score was -0.377.

`O=C(CSc1nc2ccccc2[nH]1)c1ccc2c(c1)OCO2` yielded a z-score of -0.256.

The molecule `Cc1nn(Cc2ccccc2)c(C)c1NC(=O)c1cc(-c2ccc3c(c2)OCO3)on1` registered a z-score of 1.38.

In turn, `COC(=O)C(CC(C)C)Oc1ccc2c(C)cc(=O)oc2c1` (stereo not given) returned a z-score of -2.99.

The molecule `CCCc1cc(=O)[nH]c(SCC(=O)N2CCN(S(=O)(=O)c3ccccc3)CC2)n1` had a z-score of -0.33.

`O=C(CSc1nnc2scc(-c3ccccc3)n12)c1ccc2c(c1)OCCO2` registered a z-score of -0.0592.

Regarding `Cc1cc(C)nc(N2CCN(c3nc(C)cc(C)n3)CC2)n1`, the z-score is -0.0337.

Consider `O=C(O)CCc1nn2c3ccccc3nc2n(-c2ccccc2)c1=O`, for which the z-score is -0.197.

`CCC(=NC(C)c1ccccc1)c1c(O)n(C)c(=O)n(C)c1=O` (stereo not given) gave a z-score of 0.266.

For the molecule `O=C1C(Cl)=C(N2CCOCC2)C(=O)N1c1cccc(Cl)c1`, the z-score was active: 13.9.

`CCOc1ccc(-c2csc(N)c2C(=O)OC)cc1` returned a z-score of -0.446.

`O=C(CCNS(=O)(=O)c1cccs1)Nc1ccccc1F` came in with a z-score of -0.363.

`O=C(CN(c1ccc(F)cc1)S(=O)(=O)c1ccc2c(c1)OCCO2)NCc1ccccc1` had a z-score of -0.0832.

The molecule `CCC(C)[C@H](NC(=O)NCc1ccccc1Cl)C(=O)O` (stereo not given in full) had a z-score of 0.754.

`COc1ccc2nc(NC(=O)CSc3nc4ccccc4o3)sc2c1`: the z-score worked out at 0.153.

Molecule `Cc1ccc(C(C)C)c(OCCNS(C)(=O)=O)c1` had a z-score of -0.0382.

For `C=C(C)CN(CC)C(=O)COc1ccc(S(=O)(=O)Nc2ccc(OC)cc2)cc1`, the z-score is -0.206.

Molecule `O=C1C=C(c2ccccc2)OC(=O)C1C(=O)c1ccccc1` (stereo not given) displayed a z-score of 0.868.

`COc1ccc(C(NC(=O)c2ccco2)c2ccc(OC)c(OC)c2)cc1OC` gave a z-score of 1.06.

Regarding `Cc1ccc(OCC(=O)NCc2ccccc2)c([N+](=O)[O-])n1`, the z-score is -0.0786.

For the molecule `CN1CCN(Cc2cc(Cl)c3cccnc3c2OC(=O)c2cccs2)CC1`, the z-score was determined as 0.273.

Turning to `CC1Cc2ccccc2N1C(=O)c1ccc(N2CCCCC2)c([N+](=O)[O-])c1` (stereo not given), the z-score was -0.482.

In turn, `Cc1ccc(C2=Nc3ccccc3N=C(c3ccc([N+](=O)[O-])cc3)C2)c(O)c1` displayed a z-score of -0.0727.

For `COc1ccc(OCC(=O)Sc2ccc(C)cc2)cc1`, the z-score was -0.219.

The molecule `CC1(C)C(=O)C2(CCCC2)C(=O)OC1c1ccco1` (stereo not given) returned a z-score of -0.274.

`Cc1cccc(C)c1NC(=O)C(c1ccc(Cl)cc1Cl)N1CCCCC1` (stereo not given) had a z-score of -0.158.

On to `c1ccc(CSc2nnc([C@@H]3CCCN3)o2)cc1`, for which the z-score is 0.838.

In the case of `CCOc1ccc(NS(=O)(=O)c2cc(NC(=O)c3ccc(C)cc3)ccc2Cl)cc1`, the z-score is -0.0084.

As to `CSc1nc(N2CCOCC2)c2c3c(sc2n1)CCCC3`, the z-score was -2.05.

As to `O=C(CN1CCN(c2ccccc2O)CC1)NC(=O)NCc1ccco1`, the z-score was -0.163.

Molecule `CCC(C(=O)Nc1cc(C(=O)Nc2cc(C)ccn2)ccc1Cl)c1ccccc1` (stereo not given) displayed a z-score of -0.733.

Consider `COc1ccc(-c2nnc(NC(=O)C(C)C)s2)c(OC)c1`, for which the z-score was -0.0271.

As for `Cc1ccc(OCC(=O)Nc2oc(-c3ccccc3)c(-c3ccccc3)c2C#N)cc1`, the z-score was -0.212.

For `COc1ccc(CCNC(=O)CN(c2ccc(OC)c(OC)c2)S(C)(=O)=O)cc1OC`, the z-score was -0.0449.

For the molecule `CCOC(=O)c1cccc(NC(=O)CN(c2ccc(OC)cc2)S(=O)(=O)c2c(C)noc2C)c1`, the z-score is -0.74.

`CCOC(=O)Cc1nnc2c(Nc3ccccc3F)nc3nonc3n12` showed a z-score of -0.436.

`CCSc1nnc([C@@H]2CCCN2C(=O)OC(C)(C)C)o1` had a z-score of -0.0473.

The molecule `COc1ccc(C)cc1NC(=O)CSc1nnc(-c2ccc(OC)c(OC)c2)n1N` came in with a z-score of -0.0644.

Molecule `CCN1C(=O)c2cccc3c(S(=O)(=O)Nc4ccccn4)ccc1c23` yielded a z-score of 0.133.

The molecule `CC(Sc1nc2nn(-c3ccccc3)c(=O)c-2c2n1CCCCC2)C(N)=O` (stereo not given) registered a z-score of 0.141.

The molecule `Cc1ccc(-n2c(C)cc(C(=O)CSc3nnc4ccccn34)c2C)cc1` came in with a z-score of -0.191.

In turn, `Cc1ccc(S(=O)(=O)N2CCN(S(=O)(=O)c3ccccc3)C2)cc1` showed a z-score of 0.146.

In turn, `O=C(NCc1cccs1)c1cnn2cccnc12` had a z-score of 0.267.
